# “Also recorded” adds a separate entry of the source.
# B1: NEG218-based BBM: bispecific of Example 1A: NEG218 anti-CD19 half antibody and CD3hi anti-CD3 scFv-Fc, knob-into-hole (antibody)
# heavy: EVQLVQSGAEVKKPGESLKISCKASGYSFTNYWMNWVRQMPGKGLEWMGMIHPSDSEIRLNQKFQGQVTLSVDKSIGTAYMQWSSLKASDTAMYYCSRWYYLSSPMDYWGQGTTVTVSSASTKGPSVFPLAPSSKSTSGGTAALGCLVKDYFPEPVTVSWNSGALTSGVHTFPAVLQSSGLYSLSSVVTVPSSSLGTQTYICNVNHKPSNTKVDKRVEPKSCDKTHTCPPCPAPELLGGPSVFLFPPKPKDTLMISRTPEVTCVVVAVSHEDPEVKFNWYVDGVEVHNAKTKPREEQYASTYRVVSVLTVLHQDWLNGKEYKCKVSNKALAAPIEKTISKAKGQPREPQVCTLPPSREEMTKNQVSLSCAVKGFYPSDIAVEWESNGQPENNYKTTPPVLDSDGSFFLVSKLTVDKSRWQQGNVFSCSVMHEALHNHYTQKSLSLSPGK
# light: EIVMTQSPATLSVSPGERATLSCRASQDVGTAVAWYQQKPGQAPRLLIYWASTRHTGIPARFSGSGSGTEFTLTISSLQSEDFAVYFCQQYSSYPYTFGQGTKLEIKRTVAAPSVFIFPPSDEQLKSGTASVVCLLNNFYPREAKVQWKVDNALQSGNSQESVTEQDSKDSTYSLSSTLTLSKADYEKHKVYACEVTHQGLSSPVTKSFNRGEC
# chain: EVQLVESGGGLVQPGGSLKLSCAASGFTFNTYAMNWVRQASGKGLEWVGRIRSKYNNYATYYADSVKDRFTISRDDSKSTLYLQMNSLKTEDTAVYYCVRHGNFGNSYVSWFAYWGQGTLVTVSSGGGGSGGGGSGGGGSGGGGSQAVVTQEPSLTVSPGGTVTLTCRSSTGAVTTSNYANWVQQKPGQAPRGLIGGTNKRAPWTPARFSGSLLGDKAALTLSGAQPEDEAEYFCALWYSNLWVFGGGTKLTVLGGGGSDKTHTCPPCPAPELLGGPSVFLFPPKPKDTLMISRTPEVTCVVVAVSHEDPEVKFNWYVDGVEVHNAKTKPREEQYASTYRVVSVLTVLHQDWLNGKEYKCKVSNKALAAPIEKTISKAKGQPREPQVYTLPPCREEMTKNQVSLWCLVKGFYPSDIAVEWESNGQPENNYKTTPPVLDSDGSFFLYSKLTVDKSRWQQGNVFSCSVMHEALHNRYTQKSLSLSPGK
# B2: NEG218-based TBM: TBM of Example 1A with NEG218-based CD19 binding arm; probably CD3hi TSP2 (R variant) (antibody)
# heavy: EVQLVQSGAEVKKPGESLKISCKASGYSFTNYWMNWVRQMPGKGLEWMGMIHPSDSEIRLNQKFQGQVTLSVDKSIGTAYMQWSSLKASDTAMYYCSRWYYLSSPMDYWGQGTTVTVSSASTKGPSVFPLAPSSKSTSGGTAALGCLVKDYFPEPVTVSWNSGALTSGVHTFPAVLQSSGLYSLSSVVTVPSSSLGTQTYICNVNHKPSNTKVDKRVEPKSCGGGGSGGGGSEVQLVESGGGLVQPGGSLKLSCAASGFTFNTYAMNWVRQASGKGLEWVGRIRSKYNNYATYYADSVKDRFTISRDDSKSTLYLQMNSLKTEDTAVYYCVRHGNFGNSYVSWFAYWGQGTLVTVSSGGGGSGGGGSGGGGSGGGGSQAVVTQEPSLTVSPGGTVTLTCRSSTGAVTTSNYANWVQQKPGQAPRGLIGGTNKRAPWTPARFSGSLLGDKAALTLSGAQPEDEAEYFCALWYSNLWVFGGGTKLTVLGGGGSDKTHTCPPCPAPELLGGPSVFLFPPKPKDTLMISRTPEVTCVVVAVSHEDPEVKFNWYVDGVEVHNAKTKPREEQYASTYRVVSVLTVLHQDWLNGKEYKCKVSNKALAAPIEKTISKAKGQPREPQVCTLPPSREEMTKNQVSLSCAVKGFYPSDIAVEWESNGQPENNYKTTPPVLDSDGSFFLVSKLTVDKSRWQQGNVFSCSVMHEALHNHYTQKSLSLSPGK
# light: B1 light
# chain: SQQIYGVVYGNVTFHVPSNVPLKEVLWKKQKDKVAELENSEFRAFSSFKNRVYLDTVSGSLTIYNLTSSDEDEYEMESPNITDTMKFFLYVLESGGGGSDKTHTCPPCPAPELLGGPSVFLFPPKPKDTLMISRTPEVTCVVVAVSHEDPEVKFNWYVDGVEVHNAKTKPREEQYASTYRVVSVLTVLHQDWLNGKEYKCKVSNKALAAPIEKTISKAKGQPREPQVYTLPPCREEMTKNQVSLWCLVKGFYPSDIAVEWESNGQPENNYKTTPPVLDSDGSFFLYSKLTVDKSRWQQGNVFSCSVMHEALHNRYTQKSLSLSPGK
# B3: NEG258-based TBM: TBM of Example 1A with NEG258-based CD19 binding arm; probably CD3hi TSP1 (R variant) (antibody)
# heavy: QVQLVQSGAEVKKPGASVKVSCKASGYTFTTYWIQWVRQAPGQRLEWMGAVYPGDADTRYTQKFQGRVTLTADRSASTAYMELSSLRSEDTAVYYCGRDAGLEYYALDYWGQGTLVTVSSASTKGPSVFPLAPSSKSTSGGTAALGCLVKDYFPEPVTVSWNSGALTSGVHTFPAVLQSSGLYSLSSVVTVPSSSLGTQTYICNVNHKPSNTKVDKRVEPKSCGGGGSGGGGSEVQLVESGGGLVQPGGSLKLSCAASGFTFNTYAMNWVRQASGKGLEWVGRIRSKYNNYATYYADSVKDRFTISRDDSKSTLYLQMNSLKTEDTAVYYCVRHGNFGNSYVSWFAYWGQGTLVTVSSGGGGSGGGGSGGGGSGGGGSQAVVTQEPSLTVSPGGTVTLTCRSSTGAVTTSNYANWVQQKPGQAPRGLIGGTNKRAPWTPARFSGSLLGDKAALTLSGAQPEDEAEYFCALWYSNLWVFGGGTKLTVLGGGGSDKTHTCPPCPAPELLGGPSVFLFPPKPKDTLMISRTPEVTCVVVAVSHEDPEVKFNWYVDGVEVHNAKTKPREEQYASTYRVVSVLTVLHQDWLNGKEYKCKVSNKALAAPIEKTISKAKGQPREPQVCTLPPSREEMTKNQVSLSCAVKGFYPSDIAVEWESNGQPENNYKTTPPVLDSDGSFFLVSKLTVDKSRWQQGNVFSCSVMHEALHNHYTQKSLSLSPGK
# light: EIVMTQSPATLSVSPGERATLSCRASQDVGTAVAWYQQKPGQAPRLLIYWASTRHTGIPARFSGSGSGTEFTLTISSLQSEDFAVYFCQQYANFPLYTFGQGTKLEIKRTVAAPSVFIFPPSDEQLKSGTASVVCLLNNFYPREAKVQWKVDNALQSGNSQESVTEQDSKDSTYSLSSTLTLSKADYEKHKVYACEVTHQGLSSPVTKSFNRGEC
# chain: B2 chain
# Tests used:
# Karpas422-luc cells = assay: RTCC assay with BBMs (Example 2); assay type: cell-based, human
# Experimental: (§1) A RTCC assay with the BBMs of Example 1A was performed to measure the ability of the BBMs to elicit RTCC against CD19+ Nalm6-luc and Karpas422-luc cells. Nalm-6 is a human B cell precursor leukemia cell line and Karpas422 is a human B-cell non-hodgkin lymphoma cell line. Briefly, Nalm6 and Karpas422 cells engineered to express the firefly luciferase reporter gene were cultured in RPM 11640 culture media with 10% fetal bovine serum (FBS). 10,000 target cells with serial diluted BBMs or gH isotype antibody control (αgH-CD3hi) were seeded on 384-well flat-bottom microtiter plate. Primary human T cells were isolated from cryopreserved peripheral blood mononuclear cells (PBMCs) and expanded using anti-CD3 and anti-CD28 dynabeads (Thermo fisher, catalog #11131 D) and subsequently cryopreserved. Expanded T cells were thawed and aliquoted to the plate to achieve an effector cell (i.e., T cell) to target cell (i.e., cancer cell) ratio (E:T ratio) of 3:1. Plates were incubated in a 37° C. incubator with 5% CO2 overnight. Following the co-incubation, Bright Glo (Promega, catalog #E2620) was added to all wells and the luminescence signal was subsequently measured on an Envision (Perkin Elmer). Target cells with Bright Glo served as maximal signal. The percent RTCC of target cells was calculated using the following formula: [100−(sample/maximal signal)*100%].
# Nalm6-luc cells = assay: RTCC assay with BBMs (Example 2); assay type: cell-based, human
# Experimental: as §1
# [1] = system: wild type 300.19 cell line; assay: Binding of TBMs to wild type 300.19 cells (Example 11); set-up: species or system mouse; details: flow cytometry; R variants
# Experimental: The mouse cell line 300.19 was engineered to overexpress either human CD19 or cyno CD19. Cells were cultured in RPMI medium (Invitrogen #11875-093) with 10% FBS and 2-mercaptoethanol. Cells were harvested and resuspended in FACS buffer (PBS containing 1% FBS). 50,000 cells per well were plated in a V-bottom 96-well plate. Each cell line was incubated with serial dilutions of TBMs of Example 1A (i.e., R variants) for one hour on ice. Cells were centrifuged for 4 min at 400×g and washed with FACS buffer. This was repeated twice, and then the cells were incubated with Alexa-647 labeled anti-human Fc secondary antibody (Jackson Immuno #109-605-098) for 30 min on ice. The cells were washed twice, then resuspended in 100 μL of FACS buffer. FACS data was collected on a Beckman Coulter Cytoflex and analysis was performed using CytExpert v2.3.
# [2] = system: T cells co-cultured with Nalm6 target cells; assay: Cytokine release assay, multiplexed ELISA (Example 10); assay type: cell-based, human; details: E:T 5:1, 24 hr; R variants
# Experimental: Briefly, huCD19-expressing Nalm6 target cells were harvested and resuspended in RPMI medium with 10% FBS. 20,000 target cells per well were plated in a flat-bottom 96-well plate. Human pan T effector cells were isolated via MACS negative selection from cryopreserved PBMC then added to the plate to obtain a final E:T ratio of 5:1. Co-cultured cells were incubated with serial dilutions of all constructs and controls. After an incubation of 24 hr at 37° C., 5% CO2, the supernatants were harvested by centrifugation at 300×g for 5 min for subsequent analysis.
# A multiplexed ELISA was performed according to the manufacturer's instructions using a V-PLEX Proinflammatory Panel 1 Kit (MesoScale Discovery #K15049D).
# Karpas422 target cells = assay: Re-directed T cell cytotoxicity by CD19 TBMs (Example 7); assay type: cell-based, human; details: E:T 3:1 or 5:1; 24, 48, 72 or 96 hr; two T cell donors; R variants
# Experimental: (§2) In one study, the TBMs were compared across multiple donor effector cells. Briefly, huCD19-expressing Nalm6 or Karpas422 target cells were engineered to overexpress firefly luciferase. Cells were harvested and resuspended in RPMI medium (Invitrogen #11875-093) with 10% FBS. 2,500 target cells per well were plated in a flat-bottom 384-well plate. Human pan T effector cells were isolated via MACS negative selection (Miltenyi Biotec #130-096-535) from two donors from cryopreserved PBMC (Cellular Technologies Limited #CTL-UP1) then added to the plate to obtain a final E:T ratio of 3:1 or 5:1. Co-cultured cells were incubated with a serial dilution of all constructs and controls. For normalization, average maximum luminescence refers to target cells co-incubated with effector cells, but without any test construct. After an incubation of 24, 48, 72 or 96 hr at 37° C., 5% CO2, OneGlo luciferase substrate (Promega #E6120) was added to the plate. Luminescence was measured on an Envision plate reader after a 10 minute incubation. Percent specific lysis was calculated using the following equation: Specific lysis (%)=(1−(sample luminescence/average maximum luminescence))*100
# Nalm6 target cells = assay: as above; assay type: cell-based, human; details: E:T 3:1 or 5:1; 24, 48, 72 or 96 hr; two T cell donors; R variants
# Experimental: as §2
Molecule,redirected T-cell cytotoxic activity (RTCC) (Karpas422-luc cells),redirected T-cell cytotoxic activity (RTCC) (Nalm6-luc cells),binding to wild type 300.19 cell line [1],"cytokine secretion by T cells (IFN-γ, TNF-α, IL2) [2]",cytotoxic activity (specific lysis) (Karpas422 target cells),cytotoxic activity (specific lysis) (Nalm6 target cells)
B1,mediated RTCC activity,mediated RTCC activity,,,,
B2,,,negligible binding,induce significant cytokine secretion by T cells at all dose levels measured,show cytotoxic activity,show cytotoxic activity
B3,,,negligible binding,induce significant cytokine secretion by T cells at all dose levels measured,show cytotoxic activity; also recorded: more potent than the NEG218-based TBM,show cytotoxic activity; also recorded: more potent than the NEG218-based TBM
